Among all 48,000 compounds or so, about 550 (1.1%) were called active. About 4% were inconclusive and are not listed. No stated cut-off is given here; in the data, active means potency below about 15 µM; inconclusive means mostly about 16 µM to 33 µM; inactive means weaker than that. The list shows a part of the results.
Biological target: Lysosomal acid glucosylceramidase (Homo sapiens) (UniProt P04062)
Experiment: Glucocerebrosidase;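 further: the screen sought inhibitors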
Conditions: purified enzyme, resorufin glucoside fluorescence (screen aimed at inhibitors), 20 min
Procedure, shortened: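 Wild-type enzyme at 0.2 nM final in 50mM citric acid/KH2PO4, 10mM sodium taurocholate, 0.01% tween-20, pH 5.9, with resorufin beta-D-glucopyranoside at 30 uM final. Compounds titrated, 20 min at RT, red fluorescence read; AC50 from titration.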
Potency means the concentration at half of the fitted maximal effect.

UniProt P04062, sequence (P04062 whole entry, looked up): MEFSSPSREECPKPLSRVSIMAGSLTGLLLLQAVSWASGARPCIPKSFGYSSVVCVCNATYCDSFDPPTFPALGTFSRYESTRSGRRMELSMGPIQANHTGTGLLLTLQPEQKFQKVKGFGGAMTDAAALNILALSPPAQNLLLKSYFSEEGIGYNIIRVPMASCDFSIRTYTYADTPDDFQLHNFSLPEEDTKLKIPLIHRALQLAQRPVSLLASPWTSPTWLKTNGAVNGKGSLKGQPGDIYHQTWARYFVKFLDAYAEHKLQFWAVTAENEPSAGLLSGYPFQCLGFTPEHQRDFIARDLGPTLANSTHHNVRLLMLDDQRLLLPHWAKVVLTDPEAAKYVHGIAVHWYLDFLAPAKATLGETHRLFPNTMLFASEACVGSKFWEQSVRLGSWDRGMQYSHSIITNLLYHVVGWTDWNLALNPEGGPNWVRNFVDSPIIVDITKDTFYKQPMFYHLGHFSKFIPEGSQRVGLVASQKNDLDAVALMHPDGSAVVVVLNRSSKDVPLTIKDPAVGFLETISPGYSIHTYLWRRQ

Potency, inactive:
Cn1c(CCCCCN)nc2ccccc21 > 76.9 µM, CCOC(=O)Cn1nnc(-c2ccc(SC)cc2)n1 > 76.9 µM, Oc1ccccc1C1=Nc2ncnn2C(c2ccccc2)C1 (stereo unspecified) > 76.9 µM, CCn1c(CN2CCCCCC2=O)nnc1SCc1cnc(-c2ccccc2)s1 > 76.9 µM, C=CCc1ccccc1OCC(O)CNC (stereo unspecified) > 76.9 µM, c1cnc(-c2nnc3n2CCCCC3)cn1 > 76.9 µM, CCn1c(SCC(=O)c2ccccc2)nc2c(c1=O)SC(C)C2 (stereo unspecified) > 76.9 µM, Fc1ccc(-c2nnc(Cc3nnc(-c4ccc(F)cc4)o3)o2)cc1 > 76.9 µM, COC(=O)c1cc(NCc2ccc3c(c2)OCO3)ccc1N1CCOCC1 > 76.9 µM, CCCc1nc2oc3cc(OC)ccc3c(=O)c2c(=O)n1Cc1ccco1 > 76.9 µM, CCC(CC)C(=O)Nc1c2c(nn1-c1ccc(OC)cc1)CS(=O)C2 (stereo unspecified) > 76.9 µM, CN(C)CCCNCCCNC(=O)c1ccco1 > 76.9 µM, Cc1cc(=O)oc2cc(OCC(=O)OCC(=O)NCc3ccc4c(c3)OCO4)ccc12 > 76.9 µM, CCOC(=O)c1ccc(NC(=O)CSc2nnc(-c3ccncc3)n2C)cc1 > 76.9 µM, Cc1cc(C)n(C(=O)CCCC(=O)n2nc(C)cc2C)n1 > 76.9 µM, O=C(COC(=O)c1ccco1)NC1CCCCC1 > 76.9 µM, CCSc1nnc([C@H](C)NC(=O)OC(C)(C)C)o1 > 76.9 µM, O=C(Nc1nc2n(n1)C(c1ccc(Cl)cc1)CC(c1ccc(Cl)cc1)N2)c1ccco1 (stereo unspecified) > 76.9 µM, CC(=O)Nc1ccc(S(=O)(=O)NC(C(=O)O)C2=CCC=CC2)cc1 (stereo unspecified) > 76.9 µM, CCOc1ccc(OCC)c(NC(=O)CN2CCC(NC(=O)c3cccc(F)c3)CC2)c1 > 76.9 µM, O=C(O)CNC(=O)C1COc2ccccc2O1 (stereo unspecified) > 76.9 µM, O=C(NCCc1ccccn1)C1CC(=O)N(Cc2ccccc2Cl)C1 (stereo unspecified) > 76.9 µM, Cc1ccc(C(C(=O)NCc2ccco2)N(Cc2ccco2)C(=O)CNC(=O)c2ccco2)cc1 (stereo unspecified) > 76.9 µM, CCN1CCCC1CN(Cc1cc2cc(OC)ccc2[nH]c1=O)C(=O)NCc1ccccc1 (stereo unspecified) > 76.9 µM, COc1ccc(-c2cc(NCCc3ccncc3)n3ncnc3n2)cc1 > 76.9 µM, COc1cccc(OCC(=O)Nc2ccc(OC)c(OC)c2)c1 > 76.9 µM, O=C1CC(c2ccc(S(=O)(=O)N3CCN(c4ccccc4)CC3)cc2)CN1 (stereo unspecified) > 76.9 µM, CC(NC(=O)CC12CC3CC(CC(C3)C1)C2)C(=O)O (stereo unspecified) > 76.9 µM, CCCCCC(=O)N1CCN(CCN=CC2=C(O)CC(c3ccc(OC)cc3)CC2=O)CC1 (stereo unspecified) > 76.9 µM, c1ccc2c(c1)[nH]c1c(NCC3CCCO3)ncnc12 (stereo unspecified) > 76.9 µM, O=C(CN(c1ccc2c(c1)OCCO2)S(=O)(=O)c1ccccc1)NCC1CCCO1 (stereo unspecified) > 76.9 µM, Cc1ccc(N2CCN(C(=O)CNS(=O)(=O)c3ccc(Br)s3)CC2C)cc1 (stereo unspecified) > 76.9 µM, c1ccc(Cn2c(CNc3nc4ccccc4n3CCN3CCOCC3)nc3ccccc32)cc1 > 76.9 µM, O=C(Nc1ccc2snnc2c1)N1CCOCC1 > 76.9 µM, CCOC(=O)c1c(C)[nH]c(C(=O)OCC(=O)Nc2cc(C)ccc2OC)c1C > 76.9 µM, O=c1[nH]c2ccccc2nc1Cc1ccccc1 > 76.9 µM, CCOc1ccc(CCNS(=O)(=O)c2c(C)n[nH]c2C)cc1OCC > 76.9 µM, CCOc1ccc(NC(=O)N2CCC(NC(=O)c3ccco3)CC2)cc1 > 76.9 µM, CCCSc1ncnc2c1oc1ccccc12 > 76.9 µM, Cc1ccc(NC(=O)CSc2n[nH]c(-c3ccncc3)n2)cc1C, Cn1c(SC/C=C/c2ccccc2)nnc1-c1ccco1 > 76.9 µM, COCCCn1c(SCC(=O)N2CCc3ccccc32)nnc1-c1ccoc1C > 76.9 µM, COc1ccc2c3c(cccc13)OCC2=O > 76.9 µM, CC1(C)CC(NC(=O)C(F)(F)F)CC(C)(C)N1OC(=O)c1ccco1 > 76.9 µM, COc1ccc(NC(=O)CNS(=O)(=O)c2cccc3nonc23)c(OC)c1 > 76.9 µM, Cc1ccc(-c2nnn(CC(=O)NCc3ccccc3)n2)c(-n2cnnn2)c1 > 76.9 µM, CS(=O)(=O)c1ccc(-c2nn[nH]n2)cc1 > 76.9 µM, COC(=O)c1sc2ccccc2c1C(=O)OC > 76.9 µM, CCSc1nc(C)nc2c1oc1ccccc12 > 76.9 µM, CC(=O)Oc1ccc2oc3c(c2c1)C(=O)CCC3 > 76.9 µM, CC(=O)Nc1ccc(S(=O)(=O)Nc2nc3ccccc3nc2N2CCCC2)cc1 > 76.9 µM, Cc1cc(NC(=O)CCC(=O)N(c2ccc(F)cc2)C2(C(=O)NC3CCCCC3)CCCC2)no1 > 76.9 µM, COc1ccc(NC(=O)c2cc(S(=O)(=O)N3CCCCC3)ccc2N2CCCCC2)cn1 > 76.9 µM, COc1cccc(-c2nnn(CC(=O)Nc3ccc(C)cc3C)n2)c1OC > 76.9 µM, CSc1nc(C)cc(NC(N)=O)n1 > 76.9 µM, Cc1cc(C)c2[nH]c(=O)c(C(c3nnnn3Cc3ccc4c(c3)OCO4)N3CCC(C)CC3)cc2c1 (stereo unspecified) > 76.9 µM, CCC(c1nnnn1CCc1ccccc1)N(Cc1ccco1)Cc1cc2cccc(C)c2[nH]c1=O (stereo unspecified) > 76.9 µM, O=C(O)CCc1ccc(-c2ccccc2)n1CC1CCCO1 (stereo unspecified) > 76.9 µM, CCn1cc(C(=O)N2CCN(c3ccccn3)CC2)c2cc(OC)c(OC)cc2c1=O > 76.9 µM, O=C1c2ccncc2C(=O)N1CO > 76.9 µM, COc1cccc(C(=O)N2CCN(Cc3cccc(F)c3)CC2)c1 > 76.9 µM, Cc1noc(C)c1COC(=O)CCC(=O)c1ccc(F)cc1 > 76.9 µM, COc1ccccc1NC(=O)CSc1nnc(Cn2cnc3ccccc32)n1C > 76.9 µM, CCOC1(NC(=O)c2ccccc2)C(C)=CC(=O)C=C1C > 76.9 µM, CC(C)NS(=O)(=O)c1ccc(OCC(=O)Nc2ccccc2F)cc1 > 76.9 µM, O=C(CCNS(=O)(=O)c1cccs1)N1CCCCCC1 > 76.9 µM, COC(=O)CSc1nnc(CNC(=O)c2ccc(OC)cc2OC)n1C > 76.9 µM, CC(=O)N1CCCc2cc(S(=O)(=O)NC(C(=O)NC(C)c3ccccc3)C(C)C)ccc21 (stereo unspecified) > 76.9 µM, COCc1cc(=O)n2[nH]c(C)nc2n1 > 76.9 µM, O=C(CSc1ncn(-c2ccccc2)n1)N1CCc2ccccc21 > 76.9 µM, COc1cccc(/C(O)=C2/C(=O)C(=O)N(CCN3CCOCC3)C2c2cccs2)c1 (stereo unspecified) > 76.9 µM, CC(C(=O)NC1=NCCS1)N1C(=O)c2ccccc2C1=O (stereo unspecified) > 76.9 µM, CCCc1n[nH]c2c1/C(=N/O)CC(c1ccccc1)C2 (stereo unspecified) > 76.9 µM, CCCn1nc(C(=O)NCCc2ccc(S(N)(=O)=O)cc2)c2ccccc2c1=O > 76.9 µM, CCCCC(CC)C(=O)Nc1ccc(Cl)cn1 (stereo unspecified) > 76.9 µM, CCOc1ccccc1NC(=O)c1cccc(NC(=O)c2ccco2)c1 > 76.9 µM, O=C(Nc1ccc(NC(=O)c2ccco2)nc1)c1ccccn1 > 76.9 µM, CCOc1ccc(NC(=O)CN2CCN(CC(=O)Nc3ccc4c(c3)OCO4)CC2)cc1 > 76.9 µM, Cc1cn(CC2COC(C)(C)O2)c(=O)[nH]c1=O (stereo unspecified) > 76.9 µM, N#Cc1nc(-c2ccccc2Cl)oc1N1CCOCC1 > 76.9 µM, COCCCN1C(=O)c2[nH]nc(-c3cc(C)cc(C)c3O)c2C1c1ccc(O)c(OC)c1 (stereo unspecified) > 76.9 µM, CCOC(=O)c1ccc(-c2c(C(=O)OCC)oc3cc(O)c(CC)cc3c2=O)o1 > 76.9 µM, O=C(Nc1ccc(F)c(F)c1)c1ccc(F)c(S(=O)(=O)N2CCOCC2)c1 > 76.9 µM, COc1ccc(C(=O)Cn2c(N3CCOCC3)nc3ccccc32)cc1OC > 76.9 µM, COc1ccc(C(c2nnnn2CCc2ccccc2)N2CCN(C)CC2)cc1OC (stereo unspecified) > 76.9 µM, O=C(O)CSCC(=O)Nc1cc(C(F)(F)F)ccc1Cl > 76.9 µM, COCCNC(=O)CSc1nc2ccccc2c(=O)n1-c1cccc(OC)c1 > 76.9 µM, C=CCn1c(=O)c(C(=O)NCCNCC)c(O)c2ccccc21 > 76.9 µM, Cc1ccc(NC(=O)c2cccc(OCc3c(C)noc3C)c2)c(C)c1 > 76.9 µM, Cn1c(=O)c2cc(S(=O)(=O)NCCC(=O)NCCc3ccc(Cl)cc3)ccc2n(C)c1=O > 76.9 µM, COc1ccc(CCCc2nnc(SCC(=O)Nc3nc(C)cs3)n2C)cc1 > 76.9 µM

Source: PubChem BioAssay AID360 (National Center for Advancing Translational Sciences (NCATS), 2006)
